{"source": "the supplement of paper PMC9446081", "note": "The campaign covered roughly 39,000 compounds. About 220 (0.56%) showed activity. Some of the results follow.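 Also: static incubation at 37 °C against the wild-type strain, values averaged over two biological replicates.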"}
{"tested_on": "Escherichia coli K-12 BW25113", "assay": "relative growth (OD600 normalised to plate interquartile mean) (fraction); higher = less growth inhibition, active = 0.2 or less", "details": "50 µM; LB; incubation time: overnight (16-24 h)"}
{"compound": "Cc1noc(C)c1S(=O)(=O)N(C)C[C@H]1OCCCC[C@H](C)Oc2ccc(NC(=O)Nc3ccc(F)cc3)cc2C(=O)N([C@H](C)CO)C[C@@H]1C", "relative growth": "inactive: 0.96"}
{"compound": "COc1ccc(NC(=O)N(C)C[C@H]2Oc3ncc(C#CC(C)C)cc3C(=O)N([C@H](C)CO)C[C@@H]2C)cc1", "relative growth": "inactive: 0.985"}
{"compound": "C[C@H]1CN([C@@H](C)CO)C(=O)c2cc(NC(=O)Cc3cn(C)c4ccccc34)ccc2O[C@H]1CN(C)C(=O)Nc1ccc(C(F)(F)F)cc1", "relative growth": "inactive: 1.04"}
{"compound": "C[C@@H]1CN([C@H](C)CO)C(=O)c2cc(NC(=O)Cc3cn(C)c4ccccc34)ccc2O[C@H]1CN(C)Cc1ccc(-c2ccccc2)cc1", "relative growth": "inactive: 1.04"}
{"compound": "C[C@H](CO)N1C[C@H](C)[C@H](CN(C)S(=O)(=O)c2ccc(C#N)cc2)Oc2ncc(C#Cc3cccc(F)c3)cc2C1=O", "relative growth": "inactive: 0.993"}
{"compound": "Cc1ccc(S(=O)(=O)Nc2ccc3c(c2)C(=O)N([C@H](C)CO)C[C@@H](C)[C@@H](CN(C)S(=O)(=O)c2ccc(F)cc2)O3)cc1", "relative growth": "inactive: 1.01"}
{"compound": "COc1ccc(NC(=O)N(C)C[C@H]2OCCCC[C@H](C)Oc3ccc(NC(=O)c4ccccc4)cc3C(=O)N([C@H](C)CO)C[C@H]2C)cc1", "relative growth": "inactive: 1.01"}
{"compound": "CCS(=O)(=O)Nc1ccc2c(c1)C(=O)N(C)[C@H]1CC[C@@H](CC(=O)NCCOC)O[C@H]1CO2", "relative growth": "inactive: 0.978"}
{"compound": "CN1CCN(C(=O)C[C@H]2C[C@H]3c4cc(NC(=O)c5ccc6c(c5)OCO6)ccc4O[C@H]3[C@H](CO)O2)CC1", "relative growth": "inactive: 0.976"}
{"compound": "CCOC(=O)CCCCCCCCCCCC[C@@H]1C=CCC1", "relative growth": "inactive: 1.04"}
{"compound": "C[C@@H]1CCCCO[C@H](CN(C)Cc2ccc(C(F)(F)F)cc2)[C@@H](C)CN([C@@H](C)CO)C(=O)c2cc(N(C)C)ccc2O1", "relative growth": "inactive: 1"}
{"compound": "CCOc1ccc(-n2c([C@@H](C)N(Cc3cccnc3)C(=O)Cc3ccc(OC(F)(F)F)cc3)nc3ncccc3c2=O)cc1", "relative growth": "inactive: 0.814"}
{"compound": "Cc1ccc(S(=O)(=O)N(C)C[C@@H]2Oc3c(NC(=O)C4CCOCC4)cccc3C(=O)N([C@H](C)CO)C[C@@H]2C)cc1", "relative growth": "inactive: 1.02"}
{"compound": "C[C@H](CO)N1C[C@H](C)[C@@H](CN(C)S(=O)(=O)c2cccs2)OCCCC[C@H](C)Oc2ccc(NS(=O)(=O)c3cn(C)cn3)cc2C1=O", "relative growth": "inactive: 1.01"}
{"compound": "CCCCCCCCCCC(C(=O)O)C1(C(=O)O)CCC(=O)O1", "note": "(configuration not stated)", "relative growth": "inactive: 1.05"}
{"compound": "COc1ccc(-c2cnc3c(c2)C(=O)N([C@@H](C)CO)C[C@@H](C)[C@H](CN(C)S(=O)(=O)c2ccc(OC)cc2)O3)cc1", "relative growth": "inactive: 1.03"}
{"compound": "C[C@H](CO)N1C[C@H](C)[C@@H](CN(C)S(=O)(=O)c2ccc(F)cc2)Oc2ccc(NS(=O)(=O)c3cccs3)cc2C1=O", "relative growth": "inactive: 1.02"}
{"compound": "C[C@H]1CN([C@@H](C)CO)C(=O)Cc2cc(NC(=O)CCN3CCOCC3)ccc2O[C@@H]1CN(C)C(=O)Nc1ccccc1", "relative growth": "inactive: 0.983"}
{"compound": "CC1=C(C(=O)OCCN(Cc2ccccc2)c2ccccc2)[C@H](c2cccc([N+](=O)[O-])c2)C(P2(=O)OCC(C)(C)CO2)=C(C)N1", "relative growth": "inactive: 1.01"}
{"compound": "Cl.Clc1ccc2nsnc2c1NC1=NCCN1", "relative growth": "inactive: 0.952"}
{"compound": "C[C@H]1CCCCO[C@@H](CN(C)Cc2ccc(C(=O)O)cc2)[C@@H](C)CN([C@@H](C)CO)C(=O)c2cc(NS(=O)(=O)c3ccc(F)cc3)ccc2O1", "relative growth": "inactive: 1.01"}
{"compound": "COc1ccc(CN(C)C[C@@H]2Oc3ccc(NC(=O)Nc4ccc(C(F)(F)F)cc4)cc3C(=O)N([C@@H](C)CO)C[C@H]2C)cc1", "relative growth": "inactive: 0.945"}
{"compound": "C[C@H](O)C#Cc1ccc2c(c1)O[C@@H](CN(C)C(=O)c1ccccc1)[C@@H](C)CN([C@H](C)CO)S2(=O)=O", "relative growth": "inactive: 0.956"}
{"compound": "Cc1ccc(S(=O)(=O)N2C[C@@H](O)COC[C@H]3O[C@H](CC(=O)NCc4ccccc4Cl)CC[C@@H]32)cc1", "relative growth": "inactive: 0.999"}
{"compound": "CO[C@H]1CN(C)C(=O)c2ccc(NS(=O)(=O)CC(F)(F)F)cc2OC[C@@H](C)N(C(=O)NC(C)C)C[C@@H]1C", "relative growth": "inactive: 1"}
{"compound": "O=S(=O)(NCC[C@@H]1CC[C@H](NS(=O)(=O)c2ccccc2Cl)[C@H](CO)O1)c1ccc(F)cc1", "relative growth": "inactive: 1.05"}
{"compound": "NCC[C@@H]1CC[C@@H](NC(=O)C2CC2)[C@@H](CO)O1", "relative growth": "inactive: 1.03"}
{"compound": "C[C@@H]1CCCCO[C@H](CN(C)C(=O)CCC(F)(F)F)[C@@H](C)CN([C@@H](C)CO)C(=O)c2cc(NC(=O)Nc3ccccc3)ccc2O1", "relative growth": "inactive: 0.988"}
{"compound": "C[C@H]1CN([C@@H](C)CO)C(=O)c2cccc(NC(=O)Nc3cccc4ccccc34)c2O[C@H]1CN(C)CC1CCCCC1", "relative growth": "inactive: 1"}
{"compound": "CCN(CC)S(=O)(=O)c1nnc[nH]1", "relative growth": "inactive: 1"}
{"compound": "CC(C)NC(=O)Nc1cccc2c1O[C@@H](CN(C)S(=O)(=O)c1ccc(Cl)cc1)[C@@H](C)CN([C@H](C)CO)C2=O", "relative growth": "inactive: 1"}
{"compound": "C[C@H]1CN([C@@H](C)CO)C(=O)CCCn2cc(nn2)CO[C@H]1CN(C)S(=O)(=O)c1ccc(-c2ccccc2)cc1", "relative growth": "inactive: 0.994"}
{"compound": "C[C@H](CO)N1C[C@H](C)[C@@H](CN(C)S(=O)(=O)c2ccccc2)Oc2ccc(NS(C)(=O)=O)cc2C1=O", "relative growth": "inactive: 0.994"}
{"compound": "COc1ccc(NC(=O)N(C)C[C@@H]2OCCCC[C@@H](C)Oc3ccc(NC(=O)CCCCCC(=O)Nc4ccccc4N)cc3C(=O)N([C@H](C)CO)C[C@@H]2C)cc1", "relative growth": "inactive: 0.969"}
{"compound": "CCCC#Cc1ccc2c(c1)O[C@@H](CN(C)S(=O)(=O)c1cccc(F)c1)[C@H](C)CN([C@H](C)CO)S2(=O)=O", "relative growth": "inactive: 1.04"}
{"compound": "C[C@@H]1CN([C@@H](C)CO)C(=O)c2cc(NS(C)(=O)=O)ccc2O[C@@H](C)CCCCO[C@@H]1CN(C)Cc1ccncc1", "relative growth": "inactive: 1.02"}
{"compound": "COCCOC(=O)N1C(=O)[C@@]2(c3cc(C#Cc4ccc(OC)cc4)ccc31)[C@H](c1ccc(O)cc1)N1[C@H](c3ccccc3)[C@H](c3ccccc3)OC(=O)[C@H]1[C@@H]2C(=O)N1CCCCCCC1", "relative growth": "inactive: 0.955"}
{"compound": "C[C@H](O)C#Cc1ccc2c(c1)O[C@H](CN(C)C(=O)Cc1ccccn1)[C@H](C)CN([C@@H](C)CO)S2(=O)=O", "relative growth": "inactive: 1.01"}
{"compound": "NNC(=O)[C@H]1CCCNC1=O", "relative growth": "inactive: 1.02"}
{"compound": "Cc1[nH]c(=O)[nH]c(=O)c1/C=C/C(=O)O", "relative growth": "inactive: 1"}
{"compound": "COc1ccc(S(=O)(=O)N[C@@H]2CC[C@H](CCNC(=O)CN3CCOCC3)O[C@@H]2CO)cc1", "relative growth": "inactive: 0.971"}
{"compound": "C[C@@H]1CN([C@@H](C)CO)C(=O)c2cc(NC(=O)Nc3ccc(F)cc3)ccc2O[C@@H](C)CCCCO[C@@H]1CN(C)Cc1ccc2c(c1)OCO2", "relative growth": "inactive: 1.02"}
{"compound": "C[C@H](CO)N1C[C@H](C)[C@@H](CN(C)S(=O)(=O)c2cn(C)cn2)Oc2ccc(NS(C)(=O)=O)cc2C1=O", "relative growth": "inactive: 0.983"}
{"compound": "C[C@@H]1CN([C@H](C)CO)S(=O)(=O)c2ccc(C#CC3(O)CCCC3)cc2O[C@H]1CN(C)C(=O)Nc1ccccc1", "relative growth": "inactive: 0.972"}
{"compound": "Nc1ncnc2[nH]cnc12", "relative growth": "inactive: 1.04"}
{"compound": "C[C@@H]1CN([C@@H](C)CO)C(=O)c2cc(-c3ccncc3)cnc2O[C@H]1CN(C)C(=O)Nc1ccc2c(c1)OCO2", "relative growth": "inactive: 0.98"}
{"compound": "C[C@H]1CN([C@@H](C)CO)C(=O)Cc2cc(NC(=O)CCC(F)(F)F)ccc2O[C@@H]1CN(C)Cc1ccc(Cl)c(Cl)c1", "relative growth": "inactive: 0.985"}
{"compound": "C[C@@H]1CCCCO[C@H](CN(C)Cc2ccccc2)[C@H](C)CN([C@H](C)CO)C(=O)c2cc(NC(=O)Nc3ccc(F)cc3)ccc2O1", "relative growth": "inactive: 0.991"}
{"compound": "CCN1CCN(C2CCN(Cc3cc(=O)n(C)c(=O)n3C)CC2)C1=O", "relative growth": "inactive: 1.01"}
{"compound": "O=C(C[C@@H]1CC[C@H](NS(=O)(=O)c2ccc(F)cc2)[C@H](CO)O1)N1CCC(Cc2ccccc2)CC1", "relative growth": "inactive: 1.01"}
{"compound": "NCC(=O)Nc1nccs1", "relative growth": "inactive: 0.948"}
{"compound": "CN1CCN(CCO)C(=O)C12CCN([C@H]1CCOC1)CC2", "relative growth": "inactive: 1.01"}
{"compound": "C[C@H](CO)N1C[C@H](C)[C@@H](CN(C)C(=O)Nc2ccc(F)cc2)Oc2ccc(NC(=O)Cn3cnnn3)cc2C1=O", "relative growth": "inactive: 1.01"}
{"compound": "C[C@@H]1CN([C@@H](C)CO)C(=O)c2cc(NS(C)(=O)=O)ccc2O[C@@H]1CN(C)Cc1ccc2c(c1)OCO2", "relative growth": "inactive: 1.01"}
{"compound": "COc1cccc(-c2cn(CC[C@H]3CC[C@H](NC(=O)CN(C)C)[C@@H](CO)O3)nn2)c1", "relative growth": "inactive: 0.976"}
{"compound": "Cc1ccc(S(=O)(=O)N(C)C[C@@H]2Oc3ncc(C#CC4(O)CCCC4)cc3C(=O)N([C@H](C)CO)C[C@H]2C)cc1", "relative growth": "inactive: 1.05"}
{"compound": "COCC#Cc1ccc2c(c1)O[C@H](CN(C)Cc1ccccc1F)[C@H](C)CN([C@@H](C)CO)S2(=O)=O", "relative growth": "inactive: 1.05"}
{"compound": "COc1ccc([C@H]2C/C=C\\C[C@H](c3cccc(Cl)c3)NC(=O)[C@@H](c3ccccc3)CC(=O)N2)c(OC)c1", "relative growth": "inactive: 0.99"}
{"compound": "Cc1noc(C)c1NC(=O)Nc1ccc2c(c1)C(=O)N([C@H](C)CO)C[C@H](C)[C@@H](CN(C)S(=O)(=O)c1ccccc1)OCCCC[C@H](C)O2", "relative growth": "inactive: 0.985"}
{"compound": "C[N+](C)(C)C[C@H](O)CC(=O)O", "relative growth": "inactive: 0.956"}
{"compound": "COCC(=O)N(C)C[C@H]1Oc2cc(C#Cc3ccccc3)ccc2S(=O)(=O)N([C@H](C)CO)C[C@@H]1C", "relative growth": "inactive: 1.02"}
{"compound": "CC(C)c1nc(N(C)S(C)(=O)=O)nc(-c2ccc(F)cc2)c1C=CC(O)CC(O)CC(=O)[O-].[Ca+2]", "note": "(configuration not stated)", "relative growth": "inactive: 0.985"}
